Test results from PubChem BioAssay AID1460 (National Center for Advancing Translational Sciences (NCATS), 2008).
Several values for one entry are separate records, joined by “and”; a condition that tells them apart may be missing. Equal values may be shown once. In all, about 270,000 compounds went through this assay and about 5,800 (2.1%) were called active. Inconclusive means that the source gave no clear call. Such entries were picked first, then a sample of the others. The call rests on the fitted dose curve; in most records, active means well fitted inhibition curve with a large enough effect; inconclusive means small, poorly fitted or top-dose-only effect; inactive means flat fitted curve, though single readings scatter. A potency beside an inconclusive call is a rough fit, not a confirmed value.
Further: nearly all actives have a fitted effect of over 55% in size.
Potency means the concentration at half of the fitted maximal effect; tags describe the fitted curve by direction and shape.

The compounds below were run against Microtubule-associated protein tau (Homo sapiens) (UniProt P10636) (assay: qHTS for Inhibitors of Tau Fibril Formation, Thioflavin T Binding). Details: recombinant tau K18 P301L, heparin-induced fibrillization, ThT fluorescence; series mostly up to 57.4 µM.
UniProt P10636, sequence (P10636 whole entry, looked up): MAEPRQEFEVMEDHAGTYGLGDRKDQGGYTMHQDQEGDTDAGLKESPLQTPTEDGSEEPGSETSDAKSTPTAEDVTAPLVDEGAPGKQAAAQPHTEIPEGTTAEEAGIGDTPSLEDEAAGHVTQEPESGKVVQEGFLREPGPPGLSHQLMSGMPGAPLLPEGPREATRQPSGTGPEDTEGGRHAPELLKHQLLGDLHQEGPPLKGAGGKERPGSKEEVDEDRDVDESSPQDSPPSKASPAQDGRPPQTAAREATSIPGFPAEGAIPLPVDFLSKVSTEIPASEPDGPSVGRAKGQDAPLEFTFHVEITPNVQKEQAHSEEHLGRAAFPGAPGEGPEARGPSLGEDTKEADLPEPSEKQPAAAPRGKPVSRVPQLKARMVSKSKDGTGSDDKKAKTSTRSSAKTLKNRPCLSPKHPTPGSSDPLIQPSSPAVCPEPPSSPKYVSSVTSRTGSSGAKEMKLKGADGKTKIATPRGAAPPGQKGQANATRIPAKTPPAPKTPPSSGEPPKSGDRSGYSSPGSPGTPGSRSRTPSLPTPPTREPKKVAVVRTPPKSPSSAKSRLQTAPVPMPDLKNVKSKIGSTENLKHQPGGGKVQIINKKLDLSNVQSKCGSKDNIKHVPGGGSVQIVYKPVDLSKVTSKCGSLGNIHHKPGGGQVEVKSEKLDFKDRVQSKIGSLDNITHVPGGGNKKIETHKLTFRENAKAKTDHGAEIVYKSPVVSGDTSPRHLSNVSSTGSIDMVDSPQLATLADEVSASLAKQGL
In short: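 Fibril formation assay: tau K18 P301L at 15 uM with trace Alexa 594 label, heparin inducer 20 uM, pH 7 sodium acetate buffer, 37 C for 6 hr; endpoint ThT signal.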
In the case of CC(C)(C)c1ccc(C(=O)Nc2ccc(C=C(C#N)C#N)cc2)cc1, the Potency is reported as inconclusive: 35.5 µM [inhibitor, partial curve].
In the case of CC(C)(C)NC(=O)COC(=O)CNC(=O)c1cc(Cl)cc([N+](=O)[O-])c1, the Potency is reported as “inactive”.
COc1ccc(NC(=O)CC2C(=O)N(c3ccc(F)cc3)C(=O)N2Cc2ccco2)cc1 (centres undefined) was tested, and the Potency was “inactive”.
CCN1CCOC(=O)C1CC(=O)Nc1cc(C)cc(C)c1 (centres undefined) was tested, and the Potency was inconclusive: 10 µM [inhibitor, partial curve].
With NS(=O)(=O)c1ccc(NC(=O)N2c3ccccc3Sc3ccccc32)cc1 the Potency was inconclusive: 35.5 µM [inhibitor, single point].
For COc1ccc(S(=O)(=O)Cc2ccc(C(=O)NCc3ccccn3)o2)cc1, the Potency was “inactive”.
In the case of O=C(CN1CCN(Cc2ccc3c(c2)OCO3)CC1)Nc1ccc2c(c1)OCO2, the Potency is reported as “inactive”.
With Cc1cc2c(cc1C)N(C(=O)CN1C(=O)c3ccccc3C1=O)C(C)(C)c1ssc(=S)c1-2 the Potency was inconclusive: 25.1 µM [inhibitor, partial curve].
For Cc1ccc2c(c1)sc1nc(=O)n(-c3ccccc3)c(=O)n12, the Potency was “inactive”.
COc1ccc(-c2n[nH]c(C(F)(F)F)c2-c2cc3ccccc3o2)c(O)c1 was tested, and the Potency was active: 17.8 µM.
In the case of CCCCCCN(C(=O)CCCCCN1C(=O)NC(c2ccc(-c3ccccc3)cc2)C(C(=O)OCc2ccccc2)=C1C)C(C(=O)NCCCC)c1ccc(O)c(C(=O)OC)c1 (centres undefined), the Potency is reported as inconclusive: 178 nM [inhibitor, partial curve, poor fit] and inconclusive: 158 nM [inhibitor, full curve].
For CCOc1ccccc1NC(=O)CN1C(=O)CC(c2ccc(OC)c(OC)c2)Sc2ccccc21 (centres undefined), the Potency was inconclusive: 17.8 µM [inhibitor, single point].
For Cc1c(-c2ccc(Br)cc2)nc2ccccn12, the Potency was inconclusive: 7.94 µM [inhibitor, partial curve].
For S=C(NCCc1ccccc1)NC1CCC(NC(=S)NCCc2ccccc2)CC1 (centres undefined), the Potency was “inactive”.
In the case of Cc1ccc(-c2nnc(C3CCN(S(=O)(=O)c4ccc(C)c(C)c4)CC3)o2)cc1, the Potency is reported as inconclusive: 11.2 µM [inhibitor, partial curve].
CCOC(=O)c1c(NC(=O)COC(=O)c2cc(OC)c(OC)cc2[N+](=O)[O-])sc(C)c1C was tested, and the Potency was “inactive”.
With CCOc1ccc(NC(=O)Cn2c(C)cc3ccccc3c2=O)cc1 the Potency was inconclusive: 10 µM [inhibitor, partial curve].
For Cc1ccc(NC(=O)Cn2c(=O)n(CCCCC(=O)NCc3ccccc3Cl)c(=O)c3ccccc32)cc1C, the Potency was “inactive”.
For N#C/C(=C\C1=C(N2CCOCC2)C(=C\c2ccc(Cl)cc2)/CC1)C(=O)Nc1ccccc1F, the Potency was inconclusive: 0.794 µM [inhibitor, full curve].
COc1cc(C(=O)NNC(=S)NC(=O)/C=C/c2ccccc2)cc(OC)c1OC was tested, and the Potency was inconclusive: 20 µM [inhibitor, partial curve].
With CCOc1ccc(OCCSc2nnnn2C2CCCCC2)cc1 the Potency was “inactive”.
For Cc1ccc(Cl)cc1Nc1nc(-c2sc(NC(=O)c3ccco3)nc2C)cs1, the Potency was inconclusive: 7.94 µM [inhibitor, partial curve].
COc1ccccc1NC(=O)CN1CCCN(S(=O)(=O)c2ccc(Br)cc2)CC1 was tested, and the Potency was “inactive”.
In the case of Cc1nc2ccccn2c(=O)c1NC(=O)c1ccc(C(F)(F)F)cc1, the Potency is reported as “inactive”.
For Oc1cccc(-c2nc3ccc4ccccc4c3c3c2CCC3)c1, the Potency was inconclusive: 2.82 µM [inhibitor, partial curve, poor fit].
Cc1nn2c(-c3ccco3)ccnc2c1-c1ccc(F)cc1 was tested, and the Potency was inconclusive: 1.58 µM [inhibitor, full curve].
For COc1ccccc1Nc1nc(-c2sc(NC(=O)c3cccc(Cl)c3)nc2C)cs1, the Potency was inconclusive: 7.94 µM [inhibitor, partial curve].
In the case of Cc1ccc(NC(=O)Nc2cccc(C)n2)c(C)c1, the Potency is reported as inconclusive: 0.794 µM [inhibitor, full curve].
CCCCN=c1scc(-c2ccc3c(c2)NC(=O)CO3)n1N=C1CCCC1 was tested, and the Potency was inconclusive: 25.1 µM [inhibitor, partial curve].
O=C(O)c1ccccc1NC(=S)NC(=O)c1sc2ccccc2c1Cl was tested, and the Potency was inconclusive: 17.8 µM [inhibitor, partial curve].
For O=c1c2cc([N+](=O)[O-])ccc2nc(CN2CCN(c3ccccn3)CC2)n1-c1ccccc1F, the Potency was inconclusive: 22.4 µM [inhibitor, single point].
With CC(C)NC(=O)CCCN1C(=O)CCn2nc(-c3cccn3C)cc21 the Potency was “inactive”.
With O=C(NC1CCCCCC1)c1c(O)c2ccccc2[nH]c1=O the Potency was “inactive”.
In the case of COc1ccc(/C=N/c2oc(C)c(C)c2C#N)c(OC)c1, the Potency is reported as inconclusive: 20 µM [inhibitor, partial curve].
COc1ccc(C(=O)Nc2cccc(OCc3cc(=O)n4c5c(sc4n3)CCCC5)c2)cc1 was tested, and the Potency was “inactive”.
With CCOc1cc(/C=C2/C(=O)ON=C2C)ccc1OCc1ccc(F)cc1 the Potency was inconclusive: 12.6 µM [inhibitor, partial curve].
For Cc1ccc(C)c(NC(=O)CSc2c3c(nc4ccc(Cl)cc24)CCCC3)c1, the Potency was inconclusive: 10 µM [inhibitor, partial curve].
CC1=C(C(=O)Nc2cccnc2)C(c2ccc(Cl)cc2)n2nc(-c3ccccc3)nc2N1 (centres undefined) was tested, and the Potency was inconclusive: 17.8 µM [inhibitor, partial curve, poor fit].
Clc1ccc(OCCN2CCN(c3ncnc4sccc34)CC2)cc1 was tested, and the Potency was inconclusive: 15.8 µM [inhibitor, partial curve].
With Cc1ccc(/C=N/c2sc3c(c2C#N)CCC3)s1 the Potency was active: 2 µM.
In the case of CCOC(=O)c1ccccc1NC(=O)c1sc2ncn(Cc3cccc(F)c3)c(=O)c2c1C, the Potency is reported as “inactive”.
In the case of COc1ccc(/C=C(\C#N)c2nc(-c3cc4c(ccc5ccccc54)oc3=O)cs2)cc1O, the Potency is reported as inconclusive: 2.82 µM [inhibitor, full curve].
In the case of COc1ccc2c(C)cc(N3CCN(c4ccc(F)cc4)CC3)nc2c1, the Potency is reported as inconclusive: 20 µM [inhibitor, partial curve].
COc1cccc(C(O)c2cnc(C(C)C)n2C)c1 (centres undefined) was tested, and the Potency was “inactive”.
With CCC(=O)N1CCN(c2ccc(NC(=O)c3ccco3)cc2)CC1 the Potency was inconclusive: 7.08 µM [inhibitor, partial curve].
For COC(=O)c1ccc(NC(=O)CC2C(=O)N(c3ccc(Cl)cc3)C(=O)N2Cc2ccco2)cc1 (centres undefined), the Potency was “inactive”.
With O=C(COc1cccc(NC(=O)c2ccco2)c1)c1ccccc1 the Potency was inconclusive: 35.5 µM [inhibitor, partial curve].
For CCSc1nnc(NC(=O)c2ccc(Br)s2)s1, the Potency was “inactive”.
For CCOC(=O)c1ccc(NS(=O)(=O)c2cc(-c3onc(C)c3C)ccc2C)cc1, the Potency was “inactive”.
For Cc1cccc(CNC(=O)CSCc2cnn(-c3ccccc3)c2-n2cccc2)c1, the Potency was “inactive”.
In the case of O=S(=O)(O)CCS, the Potency is reported as active: 22.4 µM.
In the case of O=C(Nc1ccc(Br)cc1F)N1CCC(CN2CCCC2)CC1, the Potency is reported as “inactive”.
With COc1ccc(-n2c(C)cc(/C=C3/SC(=S)N(C)C3=O)c2C)cc1 the Potency was inconclusive: 3.98 µM [inhibitor, partial curve].
With COc1ccc(Nc2ncnc3ccc(OC)cc23)cc1 the Potency was inconclusive: 28.2 µM [inhibitor, partial curve, poor fit].
In the case of N#C/C(=C(/O)COc1ccc(Cl)cc1)c1nc2ccccc2s1, the Potency is reported as inconclusive: 12.6 µM [inhibitor, partial curve].
With CN1/C(=C\C(=O)COC(=O)c2ccc(O)cc2)C(C)(C)c2ccccc21 the Potency was inconclusive: 17.8 µM [inhibitor, partial curve, poor fit].
For COc1ccc(Nc2nc(N3CCCC3)nc(N3CCCC3)n2)c(OC)c1, the Potency was inconclusive: 15.8 µM [inhibitor, partial curve].
With CCOc1ccc(NC(=O)c2ccccc2NS(=O)(=O)c2ccc(F)cc2)c([N+](=O)[O-])c1 the Potency was inconclusive: 10 µM [inhibitor, partial curve].
Cc1cc(=O)oc2cc(OCC(=O)OCC(=O)N3CCc4ccccc43)ccc12 was tested, and the Potency was inconclusive: 2.51 µM [inhibitor, full curve].
In the case of O=C(Nc1ccc2c(c1)OCCO2)c1ccc(NC(=O)C2CCCO2)cc1 (centres undefined), the Potency is reported as inconclusive: 20 µM [inhibitor, partial curve].
CCc1ccc2c(c1)C1(NN=C(c3ccc(C)cc3)S1)C(=O)N2 (centres undefined) was tested, and the Potency was inconclusive: 15.8 µM [inhibitor, partial curve].
Cc1ccc(CN2C(=O)N/C(=C/c3ccc4c(c3)n(C)c(=O)n4C)C2=O)cc1 was tested, and the Potency was inconclusive: 14.1 µM [inhibitor, partial curve, poor fit].
COc1ccc(CCNC(=O)CS(=O)(=O)c2cn(CC(=O)N3CCOCC3)c3ccccc23)cc1OC was tested, and the Potency was inconclusive: 28.2 µM [inhibitor, single point].
COc1ccccc1Nc1nc(C)cc(C)c1C(N)=O was tested, and the Potency was “inactive”.
For CC(=O)c1c(C)oc2ccc(N(C(C)=O)S(=O)(=O)c3ccc(Cl)c([N+](=O)[O-])c3)cc12, the Potency was inconclusive: 14.1 µM [inhibitor, partial curve].
CCOC(=O)c1cnc2ccccc2c1NCCc1ccc(OC)c(OC)c1 was tested, and the Potency was inconclusive: 20 µM [inhibitor, partial curve].
For O=C1COc2ccc(N3C(=O)C=CC3=O)cc2N1, the Potency was “inactive”.
For Nc1ccccc1SCC(=O)Nc1ccc(N2CCOCC2)cc1, the Potency was inconclusive: 20 µM [inhibitor, partial curve].
With CCN1c2ccccc2-c2nc(SCC(=O)NCc3ccc(C)cc3)ncc2S1(=O)=O the Potency was “inactive”.
